Assay results taken from PubChem BioAssay (NCATS).
Some of the results follow. Shown are side measurements of this screen, not its main read-out; they come without a call. The list favours compounds with an active or inconclusive main result. Words in brackets tell the shape of the fitted curve; partial curves, single points and poor fits give uncertain potencies.

Assay: qHTS Assay for Lipid Storage Modulators (AID 1519)
Conditions: Drosophila S3 cells, BODIPY lipid droplet/cell ratio, laser cytometry, cells loaded with oleic acid
In short: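 Cells seeded at 5,000 per well were treated with compounds over a concentration series and loaded with oleic acid (400 uM, as added). Lipid droplet fluorescence (488 nm excitation, 500-530 nm channel) was read by laser-scanning cytometry and normalized to 20 uM Triacsin C.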

[1] = measured here: cell count channel max response
[2] = measured here: lipid (BODIPY) channel AC50
[3] = measured here: lipid channel max response
[4] = measured here: cell number channel AC50
Tags give direction and shape of the fitted curve.

Question: What does the source list for CS(=O)(=O)Nc1cccc(-c2ccc3ncnc(NCc4cccs4)c3c2)c1?
Answer: max response [1]: 4.64%; AC50 [2]: 3.98 µM [rising, partial curve, poor fit]; max response [3]: -0.325%

Question: What does the source list for CC1(C)C=Cc2c(cc3occ(-c4ccc5c(c4)OCO5)c(=O)c3c2O)O1?
Answer: max response [1]: 26.5%; AC50 [2]: 22.4 µM [rising, partial curve, poor fit]; max response [3]: 45%

Question: With Cc1noc(C)c1-c1cncnc1NC1CC1 as the molecule, how does the max response [1] read?
Answer: 25.5%

Question: What about the AC50 [2] of the same molecule?
Answer: 31.6 µM [rising, partial curve]

Question: What about the max response [3] of the same molecule?
Answer: 36.9%

Question: With Cn1c(=O)c(-c2ccccc2)nc2cnc(Oc3ccccc3)nc21 as the molecule, how does the max response [1] read?
Answer: 10.2%

Question: What about the AC50 [2] of the same molecule?
Answer: 0.0282 µM [rising, full curve, poor fit]

Question: What about the max response [3] of the same molecule?
Answer: 15.7%

Question: Which results are given for O=C(c1ccco1)N1CCC[C@@]2(CCN(c3cccc(-c4ccccc4)c3)C2)C1?
Answer: max response [1]: 0.503%; AC50 [2]: 0.0282 µM [rising, full curve, poor fit]; max response [3]: -13.3%

Question: Which max response [1] does the source give for c1ccc(CNc2cc(-c3ccoc3)ncn2)cc1 here?
Answer: 28%

Question: And the AC50 [2]?
Answer: 11.2 µM [rising, partial curve, poor fit]

Question: What about the max response [3] of the same molecule?
Answer: 36.2%

Question: What does the source list for CO[C@@]1(NC(=O)Cc2cccs2)C(=O)N2C(C(=O)O)=C(COC(N)=O)CSC21 (stereo not given in full)?
Answer: max response [1]: 19.7%; AC50 [2]: 39.8 µM [rising, single point]; max response [3]: 32.4%

Question: For COc1ccccc1-c1nccc(NCc2cccs2)n1, which max response [1] is on record?
Answer: 25.8%

Question: And the AC50 [2]?
Answer: 3.16 µM [rising, full curve, poor fit]

Question: What about the max response [3] of the same molecule?
Answer: 28.4%

Question: Which max response [1] does the source give for COc1cccc(Cn2c(=O)cnc3cnc(Nc4cccc(OC)c4)nc32)c1 here?
Answer: 1.04%

Question: What about the AC50 [2] of the same molecule?
Answer: 0.0562 µM [rising, full curve, poor fit]

Question: What about the max response [3] of the same molecule?
Answer: 0.007%

Question: Which max response [1] does the source give for COc1cc2nc(N3CCN(C(=O)[C@H]4CCCO4)CC3)nc(N)c2cc1OC here?
Answer: 56.5%

Question: And the AC50 [4]?
Answer: 28.2 µM [rising, partial curve]

Question: And the max response [3]?
Answer: 77.6%

Question: Which results are given for O=c1c(-c2cccc(F)c2)nc2cncnc2n1Cc1ccccc1Cl?
Answer: max response [1]: 14.7%; AC50 [2]: 0.1 µM [rising, full curve, poor fit]; max response [3]: 18.3%

Question: With COc1cc2c(cc1OC)-c1c(oc3cc(O)cc(O)c3c1=O)CO2 as the molecule, how does the max response [1] read?
Answer: -28%

Question: What about the AC50 [2] of the same molecule?
Answer: 35.5 µM [falling, single point]

Question: What about the max response [3] of the same molecule?
Answer: -57.7%

Question: What does the source list for COc1cc(/C=C(\C#N)C(N)=O)cc(CSc2nc3ccccc3s2)c1O?
Answer: max response [1]: 33.7%; AC50 [4]: 15.8 µM [rising, partial curve, poor fit]; max response [3]: -59.3%

Question: Which max response [1] does the source give for COc1ccc(-c2nc3cnc(N(C)C)nc3n(C3CC3)c2=O)cc1 here?
Answer: 27%

Question: And the AC50 [2]?
Answer: 3.98 µM [rising, partial curve]

Question: What about the max response [3] of the same molecule?
Answer: 35.8%

Question: For O=C(c1cnccn1)N1CCC2(CC1)CN(c1ccccc1)C2, which max response [1] is on record?
Answer: 10.4%

Question: And the AC50 [4]?
Answer: 0.282 µM [rising, full curve, poor fit]

Question: What about the max response [3] of the same molecule?
Answer: 17.1%

Question: Which results are given for CN(C)C(=O)c1ccc(-c2nccc(NCc3cccnc3)n2)cc1?
Answer: max response [1]: 24.9%; AC50 [2]: 6.31 µM [rising, partial curve]; max response [3]: 36.3%

Question: For Cc1noc(C)c1-c1nccc(N(C)Cc2ccco2)n1, which max response [1] is on record?
Answer: 25.3%

Question: And the AC50 [2]?
Answer: 3.16 µM [rising, full curve, poor fit]

Question: What about the max response [3] of the same molecule?
Answer: 32.3%

Question: Which max response [1] does the source give for COCC(=O)N1CCC2(CCCN(C(=O)Nc3cccc(C#N)c3)C2)CC1 here?
Answer: 28.1%

Question: And the AC50 [2]?
Answer: 5.62 µM [rising, partial curve]

Question: What about the max response [3] of the same molecule?
Answer: 38.2%

Question: With Cc1cnc(CNc2nc(-c3ccc(C(=O)N(C)C)cc3)nc3ccccc23)cn1 as the molecule, how does the max response [1] read?
Answer: 19.3%

Question: What about the AC50 [2] of the same molecule?
Answer: 11.2 µM [rising, partial curve, poor fit]

Question: What about the max response [3] of the same molecule?
Answer: 35.8%

Question: For O=C(c1ccncc1)N1CCC2(CCCN(c3cccc(-c4ccccc4)c3)C2)CC1, which max response [1] is on record?
Answer: 19.5%

Question: And the AC50 [2]?
Answer: 0.355 µM [rising, full curve, poor fit]

Question: What about the max response [3] of the same molecule?
Answer: 14.9%

Question: Which results are given for O=c1c(-c2ccccc2)nc2cncnc2n1Cc1ccccc1Cl?
Answer: max response [1]: 24.7%; AC50 [2]: 0.0224 µM [rising, full curve]; max response [3]: 39%

Question: Which max response [1] does the source give for COc1ccc(-c2cc(C(F)F)nn2-c2ccc(S(N)(=O)=O)cc2)cc1F here?
Answer: 15.2%

Question: What about the AC50 [2] of the same molecule?
Answer: 39.8 µM [rising, single point]

Question: And the max response [3]?
Answer: 36.1%

Question: What does the source list for N[C@@H](C(=O)O)c1ccc(C(=O)O)c(O)c1?
Answer: max response [1]: -4.73%; AC50 [2]: 0.00708 µM [falling, full curve, poor fit]; max response [3]: -1.16%

Question: For COC(=O)N1CCC[C@@]2(CCN(C(=O)Nc3ccc(OC)cc3)C2)C1, which max response [1] is on record?
Answer: 11%

Question: What about the AC50 [2] of the same molecule?
Answer: 0.0562 µM [rising, full curve, poor fit]

Question: And the max response [3]?
Answer: 21.5%

Question: Which results are given for CC1C(=O)OC2CC34C5CC(C(C)(C)C)C36C(OC(=O)C6O)OC4(C(=O)O5)C21O (stereo not given)?
Answer: max response [1]: 1.35%; AC50 [2]: 12.6 µM [rising, single point]; max response [3]: 2.63%
